In PubChem BioAssay AID485344 (National Center for Advancing Translational Sciences (NCATS), 2010):
The whole screen tested about 340,000 compounds, of which about 6,900 (2%) were called active. Cut-off read from the data, not from the text of the source: active = inhibition above about 30%; inactive = below that, where a call was filed. This is a selection; strong and weak results do not stand in their true shares. Where no call is shown, the source filed none.

molecular target: D(2) dopamine receptor (Homo sapiens) (UniProt P14416); test: HTS Assay for Allosteric Antagonists of the Human D2 Dopamine Receptor: Primary Screen for Antagonists; settings: HEK293 TREx D2 cells, calcium flux, dopamine EC80; at 10 µM; stronger effect = higher value; note: 0% is about no effect
UniProt P14416, sequence (P14416 whole entry, looked up): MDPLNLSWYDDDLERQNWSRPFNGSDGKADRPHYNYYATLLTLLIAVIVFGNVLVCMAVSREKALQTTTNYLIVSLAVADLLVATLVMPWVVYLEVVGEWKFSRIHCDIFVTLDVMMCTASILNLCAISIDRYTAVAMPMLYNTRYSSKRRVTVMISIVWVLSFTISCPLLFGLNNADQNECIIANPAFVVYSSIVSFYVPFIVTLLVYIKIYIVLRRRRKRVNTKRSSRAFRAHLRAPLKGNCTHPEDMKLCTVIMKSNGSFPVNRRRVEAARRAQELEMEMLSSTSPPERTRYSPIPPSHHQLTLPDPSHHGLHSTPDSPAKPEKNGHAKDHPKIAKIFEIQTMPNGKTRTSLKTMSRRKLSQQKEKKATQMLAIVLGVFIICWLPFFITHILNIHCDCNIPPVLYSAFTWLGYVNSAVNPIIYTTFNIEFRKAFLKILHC
How it was run: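 Calcium mobilization kinetics were recorded at 1 s intervals in tetracycline-induced HEK293 T-REx D2 cells, first for 180 s after compound addition and then 180 s after EC80 dopamine.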

| Structure (SMILES) | inhibition |
| --- | --- |
| Cc1ccc(C)c(Cn2c3ccccc3c3cnn(CC(=O)NCCC4=CCCCC4)c(=O)c32)c1 | 15.6% |
| CCn1c(=O)c2cc(C(=O)N(CCN(C)C)Cc3ccccc3)sc2c2ccccc21 | -2.25% |
| CCOc1ccc(-c2nn(CC(=O)NC3CCCCC3)c3c2cnc2ccc(C)cc23)cc1 | 2.35% |
| CCCn1c2ccccc2c2cnn(CC(=O)NCCc3ccc(OCC)cc3)c(=O)c21 | 7.55% |
| COc1cc(-c2noc(-c3ccc(NCc4ccccc4)c([N+](=O)[O-])c3)n2)cc(OC)c1OC | 19.9% |
| Cc1ccc(C(=O)NCCc2ccc(Cl)cc2)cc1-n1c(C)nc2cccnc21 | 5.17% |
| CCOc1ccc(NC(=O)CCNS(=O)(=O)c2ccc3c(c2)oc(=O)n3C)cc1 | 3.93% |
| Cc1ccc(-c2nnc(Nc3ccc(O)cc3)c3ccccc23)cc1S(=O)(=O)N1CCN(C)CC1 | -1.9% |
| COc1ccc(Nc2cc(C(=O)NCCc3ccc(C)cc3)c3ccccc3n2)c(OC)c1 | -0.67% |
| CCOC(=O)N1CCC(NC(=O)c2c(C)nn(-c3ccc(C)cc3)c2-n2cccc2)CC1 | 0.19% |
| CCOCCCNC(=O)C1CCN(c2nn3cc(-c4ccc(F)cc4)nc3s2)CC1 | 14.2% |
| CCCCOc1ccc(C(=O)Nc2nnc3n2CCS3)cc1 | 16.4% |
| Cc1cc(C)cc(NC(=O)CSc2nc3c(oc4ccccc43)c(=O)n2-c2ccccc2F)c1 | 14.4% |
| COc1ccc2cc3cc(C(=O)NCc4ccc(C)cc4)oc3nc2c1 | 4.65% |
| COc1ccc(OC)c(CCNC(=O)c2ccc3c(c2)N(Cc2ccc(C)cc2)CCS3)c1 | -10.8% |
| COc1ccc(F)cc1S(=O)(=O)NCCc1c(C)[nH]c2c(Cl)cccc12 | -1.91% |
| CCc1cccc(OCC(=O)Nc2ccc(S(=O)(=O)Nc3cc(C)nc(C)n3)cc2)c1 | -8.55% |
| COc1cccc(C(c2sc3nc(-c4ccco4)nn3c2O)N2CCC(O)CC2)c1 (stereo not drawn) | 6.2% |
| Cc1ccc(CNC(=O)c2ccc3nc(N4CCCCC4)sc3c2)cc1 | -4.42% |
| O=S(=O)(NCCc1nnc2ccc(SCc3ccc(Cl)cc3Cl)nn12)c1ccccc1 | 0.749% |
| CCOc1ccc(CCNC(=O)c2ccc3c(Cl)c4c(nc3c2)CCCC4)cc1 | -6.04% |
| CCOC(=O)c1ccc(NC(=O)c2c(NC(C)=O)sc3c2CCC(C)C3)cc1 (stereo not drawn) | 16.3% |
| COCCOC(=O)c1c(C)n(S(=O)(=O)c2ccc(C)cc2)c2ccc(NS(=O)(=O)c3ccc(C)cc3)cc12 | -9.7% |
| CCOc1ccccc1NC(=O)c1sc2nc3n(c(=O)c2c1C)CCCCC3 | 22.9% |

| Structure (SMILES) | inhibition |
| --- | --- |
| C1=CC2CC1CC2CN1CCN(c2ccccc2)CC1 (stereo not drawn) | active: 77.2% |
| Cc1nn(Cc2ccc(F)cc2)c(C)c1NC(=O)c1cc(CC(C)C)on1 | 6.01% |
| Cn1c(=O)c(=O)n(C)c2cc(N3CCOCC3)c(NS(=O)(=O)c3ccc(Cl)cc3)cc21 | 1.78% |
| COC(=O)c1scc(-c2ccc(C)cc2)c1S(=O)(=O)Nc1cc(Cl)ccc1C | 7.63% |
| CCc1ccc(S(=O)(=O)c2cn(CC(=O)Nc3ccc(C)cc3)c3ccccc3c2=O)cc1 | 4% |
| CCOC(=O)c1[nH]c2c(c1Cc1ccccc1)C(=O)CC(c1ccc(Cl)cc1)C2 (stereo not drawn) | 19.4% |
| CCN(CC)c1ccc(NS(=O)(=O)c2ccc(-c3cnc(C4CC4)o3)cc2)c(C)c1 | -11.9% |
| CCOc1ccccc1N1CCN(Cc2cn[nH]c2-c2ccc(F)cc2)CC1 | active: 80.9% |
| CCC1CN(C(=O)N2CCC(C(=O)NCCc3ccc(Cl)cc3)CC2)c2ccccc2O1 (stereo not drawn) | 4.08% |
| CCCn1c(SCc2nc(-c3ccc(OC)cc3OC)no2)nnc1-c1ccc(Cl)cc1 | 0.82% |
| Cc1cccc(C)c1NC(=O)CSc1nc(-c2ccccc2)nc2c1Cc1c(CO)cnc(C)c1O2 | 26.1% |
| O=C1NCCN(Cc2ccc(F)cc2)C1=O | 11.3% |
| Cc1ccc(NC(=O)Cn2cc(C(=O)C3CC3)c3ccccc32)cc1 | -8.39% |
| COc1ccc(NC(=O)Cn2nnc(C(=O)Nc3ccc(F)c(Cl)c3)c2N)cc1OC | 4.03% |
| CCC(=O)c1ccc(OCC(O)CN2CCN(c3ccccn3)CC2)cc1 (stereo not drawn) | active: 73.6% |
| Cn1c(SCc2ccc(F)cc2)nc2ccc(C(=O)NCc3ccc(Cl)cc3)cc21 | -6.3% |
| COc1ccc(-c2noc(CN(C(=O)COc3cc(C)c(Br)c(C)c3)C(C)C)n2)cc1 | 11.8% |
| CCOc1ccc(N(C(=O)CC(C)C)S(=O)(=O)c2ccc3c(c2)oc(=O)n3C)cc1 | 10.6% |
| COc1ccc(CCNC(=O)CCCn2c(=O)c3ccccc3n(Cc3cccc(Cl)c3)c2=O)cc1OC | 12.4% |
| COc1ccc(S(=O)(=O)n2nc(C)c(S(=O)(=O)N3CCC(C)CC3)c2C)cc1C | -13.7% |
| COc1ccc(CCNS(=O)(=O)c2ccc3c(c2)CC(C)N3C(=O)C2CCC2)cc1OC (stereo not drawn) | 3.07% |
| CCC(=O)Nc1c(C(=O)N2CCN(c3ccc(F)cc3)CC2)oc2ccccc12 | 4.66% |
| O=C(c1ccc(NC(=O)C2(c3ccccc3)CCOCC2)cc1)N1CCOCC1 | active: 31.7% |
| CCOC(=O)c1sc2ncn(CC(=O)Nc3ccc(N(C)C)cc3)c(=O)c2c1C | -3.26% |

| Structure (SMILES) | inhibition |
| --- | --- |
| COc1ccccc1N1CCN(C2CCCC(C)C2)CC1 (stereo not drawn) | active: 33.9% |
| O=C(Nc1nc2ccc(S(=O)(=O)N3CCCC3)cc2s1)c1cccc(F)c1 | 3.7% |
| COc1ccc(OC)c(CNC(=O)c2nn(-c3ccc(OC)c(Cl)c3)c(=O)c3c2c2ccccc2n3C)c1 | -9.18% |
| Cc1cc(NC(=O)CSc2nnc(-c3cccs3)n2N)no1 | active: 38.8% |
| CCS(=O)(=O)N1CCc2cc(C(=O)Nc3ccc(OC)c(Cl)c3)ccc21 | -3.95% |
| CCOc1ccc2nc(N3CCCC(C(=O)Nc4c(C)cccc4C)C3)sc2c1 (stereo not drawn) | 3.14% |
| Cc1ccc(Sc2c(C)nn(C(=O)COc3ccccc3Br)c2C)cc1 | -6.52% |
| COc1cc(C(=O)NCCCc2nc3ccccc3n2CC(C)C)cc(OC)c1OC | -8.31% |
| O=C(C1CCN(S(=O)(=O)c2ccc(Br)s2)CC1)N1CCN(c2cccc(Cl)c2)CC1 | -6.13% |
| CCOc1ccc(CCNC(=O)c2sc3nc4n(c(=O)c3c2C)CCCC4)cc1OCC | -4.97% |
| CCOC(=O)c1ccc(NC(=O)CCn2c(=O)c3cccn3c3ccccc32)cc1 | 10.1% |
| COc1ccc(-n2c(SCC(=O)Nc3ccc(Cl)c(C)c3)nc3n[nH]c(C)c3c2=N)cc1 | 3.3% |
| NC(=O)c1c(NC(=O)c2nc(SCc3ccccc3F)ncc2Cl)sc2c1CCCC2 | -6.62% |
| CCOC(=O)c1c(NC(=O)c2ccc(S(=O)(=O)N3CCC(C)CC3)cc2)sc2c1CCN(C)C2 | 4.29% |
| COc1ccc(C)cc1NC(=O)c1oc2ccc(S(=O)(=O)N3CCCCC3)cc2c1C | -7.37% |
| Cc1ccc(C)c(N2CCN(S(=O)(=O)c3cc(Br)cc4c3N(C(=O)C3CC3)CC4)CC2)c1 | -2.6% |
| COc1cccc(C(=O)C2CCCN(Cc3cccc(-n4cccn4)c3)C2)c1 (stereo not drawn) | active: 31.7% |
| CCOc1ccc(C2c3[nH]c4ccccc4c3CCN2C(=O)CCc2ccccc2)cc1 (stereo not drawn) | 9.82% |
| COC(=O)c1nc2n(n1)C(c1cccc(Cl)c1)C(C(=O)Nc1ccccc1OC)=C(C)N2 (stereo not drawn) | -15.8% |
| Cc1cccc(C)c1NC(=O)C(NS(=O)(=O)c1ccc2c(c1)CCC(=O)N2)c1ccccc1 (stereo not drawn) | 0.146% |
| Cc1c2cnn(-c3ccccc3)c(=O)c2c(C)n1CCCC(=O)Nc1cc(F)ccc1F | 1.48% |
| Cc1ccc(-c2nc(C)c(CCNC(=O)c3ccco3)s2)cc1 | -8.34% |
| O=C(CSc1nc2ccccc2nc1Cc1ccc(Cl)cc1)N1CCc2ccccc21 | -9.45% |
| CCN(c1cccc(C)c1)S(=O)(=O)c1nnc(NC(=O)C2CCCCC2)s1 | 16.9% |

| Structure (SMILES) | inhibition |
| --- | --- |
| O=C(CSC1=Nc2ccccc2C2=NC(CC(=O)NC3CCCCC3)C(=O)N12)Nc1ccc(F)cc1 (stereo not drawn) | 6.68% |
| CCOc1ccc(NC(=O)CSc2ncc3c(n2)-c2ccc(Cl)cc2N(Cc2ccccc2)S3(=O)=O)cc1 | -0.826% |
| COc1ccc(-c2nc3sc(CCNC(=O)c4cc(OC)c(OC)c(OC)c4)c(C)n3n2)cc1 | 17.1% |
| COc1ccc(N2CCN(S(=O)(=O)c3ccc4oc(=O)c5ncn(C)c5c4c3)CC2)cc1 | 8.79% |
| CCc1ccc(C2CC(=O)c3c([nH]c(C(=O)OC4CCC(C)CC4)c3C)C2)cc1 (stereo not drawn) | 16.4% |
| CNC(=O)c1ccc2nc(CCc3ccccc3)oc2c1 | -24.4% |
| COc1ccc(S(=O)(=O)NCc2cccn2Cc2cccc(C)c2)cc1Cl | 17.1% |
| COc1ccc(-c2cc(C(F)(F)F)nc(SCC(=O)N3CCCCC3)n2)cc1OC | -11.4% |
| COc1ccc(OC)c(S(=O)(=O)N2Cc3ccccc3CC2C(=O)Nc2ccc(C)cc2C)c1 (stereo not drawn) | 13.4% |
| COc1ccc(-c2nc(SCC(=O)Nc3ccccc3)c(-c3ccc(F)cc3)[nH]2)cc1OC | 10.9% |
| CCc1cccc(C)c1NC(=O)C(CC)n1nc(C)c2c(C)n(-c3ccccc3)nc2c1=O (stereo not drawn) | 3.71% |
| COCCNc1ccc(-c2nc(-c3ccncc3)no2)cc1[N+](=O)[O-] | 16.5% |
| Cn1c(CN2CCCC2)nc2cc(NS(=O)(=O)c3ccc(Cl)cc3)ccc21 | active: 68.6% |
| COc1cccc(-n2c(SCC(=O)N3CCc4ccccc43)nc3c([nH]c4ccccc43)c2=O)c1 | 5.53% |
| COc1cc(NC(=O)CSc2nc(-c3cccs3)cc(C(F)(F)F)n2)cc(OC)c1OC | 9.99% |
| O=C(Nc1ccc(F)cc1F)c1cccc2c1C(=O)N(C1CCCCC1)C2 | 18.5% |
| Cc1cccc(CSc2nc3c(c(=O)[nH]2)CCC3)c1 | -7.76% |
| Cc1ccc(CNC(=O)c2ccc(CS(=O)(=O)Cc3ccc(F)cc3)o2)cc1 | -24% |
| CCCCc1nn2c(=O)cc(COC(=O)c3cccc(NC(=O)c4cccc(Cl)c4)c3)nc2s1 | 14.8% |
| COc1ccc(CCCc2nnc(SCC(=O)Nc3cccc(C)c3)o2)cc1C | -2.53% |
| CNC(=S)N1N=C(c2ccc(OC)cc2)CC1c1ccccc1Cl (stereo not drawn) | active: 33.5% |
